Test results reported in PubChem BioAssay AID624296 (National Center for Advancing Translational Sciences (NCATS), 2012).
About 9,900 (2.8%) of roughly 350,000 compounds were called active. The shares of active, inactive and inconclusive entries below differ from those in the screen. Calls follow the shape of the dose curve; as a rule, active = well fitted activation curve with a large enough effect; inconclusive = small, poorly fitted or top-dose-only effect; inactive = no such curve, though single readings can be large or run the other way. No potency is given beside an inconclusive call; the fits are too rough.

Assay: A quantitative high throughput screen for small molecules that induce DNA re-replication in MCF 10a normal breast cells. Also: nearly all actives have a fitted effect of over 50% in size. As to activity, positive = re-replication: % of control where 0% means no effect.
Conditions: MCF 10A DNA re-replication, Hoechst nuclear intensity, 48 h; activity, positive = re-replication: at 46.1 µM (top of the series)
Potency is read from the fitted curve at half-maximal effect; tags tell the direction and shape of the fitted curve.

Row | Compound | Potency | activity, positive = re-replication
1 | CC(CCc1ccccc1)NC(=O)c1nnc(Cc2ccc(F)cc2)o1 (stereo not given) | inconclusive [activator, full curve] | 
2 | CCOC(=O)c1[nH]c(C)c(/C(O)=C2\C(=O)C(=O)N(CCN(C)C)C2c2ccc(C)o2)c1C (stereo not given) | inconclusive [activator, single point] | 
3 | COC(=O)N/N=C/c1cc(C)n(-c2cccc3ccccc23)c1C | inconclusive [activator, single point] | 
4 | O=C(NNC(=O)c1cc(-c2ccccc2)nn1-c1ccccc1)c1ccccc1 | inconclusive [activator, single point] | 
5 | C/C(CC(=O)Nc1ccc2c(c1)OCCO2)=N\NC(=O)COc1ccc(C)cc1Br |  | inactive: 2.01%
6 | CS(=O)(=O)N(CC(=O)N1CCCCCC1)c1cccc(F)c1 | inconclusive [activator, single point] | 
7 | O=C(O)c1ccc2c(c1)ncn2C1CCCC1 |  | inactive: 4.97%
8 | O=C(N/N=C/c1ccc2c(c1)OCO2)c1ccccn1 |  | inactive: 2.77%
9 | O=C(O)CCC(=O)N1CCN(S(=O)(=O)c2ccc3ccccc3c2)CC1 |  | inactive: -0.241%
10 | O=C(Nc1ccccc1)N(CCCN1CCOCC1)Cc1cc2cc3c(cc2[nH]c1=O)OCCO3 |  | inactive: 6.68%
11 | Fc1ccc(N2CCN(c3cnc4ccccc4n3)CC2)cc1 |  | inactive: 2.83%
12 | COc1cccc(C(C(=O)NC2CCCC2)N(Cc2ccco2)C(=O)c2ccco2)c1OC (stereo not given) |  | inactive: 0.624%
13 | O=C(CCc1nnc(-c2ccc3c(c2)OCO3)o1)N1CCC(c2ccc(F)cc2)C1 (stereo not given) | inconclusive [activator, partial curve, poor fit] | 
14 | O=C(c1cc(COc2ccc(F)cc2Cl)on1)N1CCCCCC1 | inconclusive [activator, single point] | 
15 | CCOC(=O)N1CCC(NC(=O)c2cc(S(=O)(=O)N(CC)CC)ccc2F)CC1 |  | inactive: -12.6%
16 | CCN(CC)CCn1c(/N=C/c2cc(Br)ccc2O)nc2ccccc21 | inconclusive [activator, single point] | 
17 | COc1ccc(CC(=O)N2CCC(CCC(=O)Nc3ccccc3)CC2)cc1 | active: 23.1 µM | 
18 | CC(C)c1cc(-c2n[nH]c(=S)n2Cc2ccccc2)cs1 | inconclusive [activator, single point] | 
19 | COc1cc(NC(=O)CSc2nc(C)c(C)c(C)n2)c(C)cc1[N+](=O)[O-] |  | inactive: 6.77%
20 | CCOC(=O)c1cc(S(=O)(=O)NC2CCN(C(=O)OCC)CC2)cn1C | inconclusive [activator, single point] | 
21 | Cc1ccc(S(=O)(=O)c2nc(S(C)(=O)=O)sc2N2CCC3(CC2)OCCO3)cc1 | inconclusive [activator, single point] | 
22 | Nn1c(SCc2cccc3ccccc23)nnc1-c1ccco1 |  | inactive: 11.1%
23 | O=C1CC(N2CCC(Cc3ccccc3)CC2)C(=O)N1CCc1ccccc1 (stereo not given) | inconclusive [activator, single point] | 
24 | N#Cc1c(NC(=O)c2nc3ncccn3n2)sc2c1CCCCC2 | inconclusive [activator, single point] | 

Row | Compound | Potency | activity, positive = re-replication
25 | CN(C)S(=O)(=O)c1ccc(NC(=O)c2cc(-c3cccs3)nc3ccccc23)cc1 | inconclusive [activator, partial curve, poor fit] | 
26 | Cc1cc(NC(=O)COc2cccc(Oc3ccccc3)c2)no1 | inconclusive [activator, single point] | 
27 | CCOc1ccccc1N(C)S(=O)(=O)c1ccc2c(c1)CC(C)N2C(=O)C1CC1 (stereo not given) | inconclusive [activator, partial curve, poor fit] | 
28 | O=[N+]([O-])c1ccc(CCNc2cccc3ccccc23)c([N+](=O)[O-])c1 | inconclusive [activator, partial curve, poor fit] | 
29 | Cc1ccc(NC(=O)CSc2nc3ncc(Cl)cc3[nH]2)c(C)c1 | inconclusive [activator, single point] | 
30 | Cc1ccc(Cl)cc1N1CCN(Cc2nnnn2Cc2ccco2)CC1 | inconclusive [activator, single point] | 
31 | CCOc1ccc(-n2c(O)c(/C=N/c3ccnn3Cc3ccncc3)c3ccccc3c2=O)cc1 | inconclusive [activator, single point] | 
32 | COCCNC(=O)Cn1nc(-c2ccc(C)cc2)ccc1=O |  | inactive: 11.6%
33 | N/C(Cc1ccc([N+](=O)[O-])cc1)=N\OC(=O)Cc1ccc(Cl)cc1 |  | inactive: 0.0609%
34 | Cc1ccc(C(=O)Nc2cccc(NC(=O)c3ccc(C)cc3)n2)cc1 | inconclusive [activator, full curve, poor fit] | 
35 | CCOc1c(Br)cc(/C=C(\C#N)C(=O)NC2CC2)cc1OC |  | inactive: 8.07%
36 | CCc1sc(C(C2C(=O)CC(C)(C)CC2=O)C2C(=O)CC(C)(C)CC2=O)cc1[N+](=O)[O-] | inconclusive [activator, single point] | 
37 | NNc1nc(-c2ccccc2)cs1 | inconclusive [activator, single point] | 
38 | Cc1oc(S(=O)(=O)N2CCCC2)cc1C(=O)Nc1ccccc1 | inconclusive [activator, full curve, poor fit] | 
39 | COc1cc(/C=N/n2c(-c3ccccc3)n[nH]c2=S)cc(OC)c1OC | inconclusive [activator, single point] | 
40 | NN=C(c1cccc([N+](=O)[O-])c1)c1cccc([N+](=O)[O-])c1 | inconclusive [activator, full curve, poor fit] | 
41 | CC1(C)CC(=O)C/C(=N/Nc2nc3ccccc3s2)C1 | inconclusive [activator, single point] | 
42 | COc1ccccc1N1CCN(CCNC(=O)Nc2cccc(C)c2C)CC1 | inconclusive [activator, single point] | 
43 | Cc1ccc(S(=O)(=O)N(C)C)cc1NC(=S)N1CCc2ccccc21 |  | inactive: 15.8%
44 | COCCn1c(=O)[nH]c(=O)c2c1nc(-c1ccc(-c3ccc(Cl)cc3[N+](=O)[O-])o1)n2Cc1ccccc1 | active: 5.17 µM | 
45 | Cc1cc(C(=O)COc2cccnc2[N+](=O)[O-])c(C)n1-c1ccccc1 |  | inactive: 20.2%
46 | CCOC(=O)c1ccc(NC(=S)N(CCCN2CCCCCC2)Cc2ccco2)cc1 |  | inactive: 22.9%
47 | Fc1ccc(Sc2nc(-c3ccccc3)nnc2C(F)(F)F)cc1 | active: 3.66 µM | 
48 | COc1ccccc1CNC(=O)C(C)c1ccc([N+](=O)[O-])cc1 (stereo not given) | inconclusive [activator, single point] | 

Row | Compound | Potency | activity, positive = re-replication
49 | CCCCOc1ccc(C(=O)NCC(=O)N(C)CC(=O)Nc2ccc(N3CCOCC3)cc2)cc1 | inconclusive [activator, partial curve, poor fit] | 
50 | Cc1ccc(Nc2nc3ccccc3s2)cc1 |  | inactive: 2.98%
51 | CCNc1nc(Oc2c(Cl)cccc2Cl)cc(C(F)(F)F)n1 | inconclusive [activator, single point] | 
52 | Cc1cc2cc(C(=O)N3CCc4c([nH]c5ccccc45)C3c3ccccn3)ccc2o1 (stereo not given) |  | inactive: 14.4%
53 | CCOC(=O)c1cccc(NC(=O)c2ccc(NC(=O)c3ccco3)cc2)c1 | inconclusive [activator, partial curve, poor fit] | 
54 | CCCC(=O)Nc1ccc2nc(SCC(=O)N3CCCC3)sc2c1 |  | inactive: 13.8%
55 | CCCCn1c(N)c(N(Cc2ccccc2OC)C(=O)c2ccc([N+](=O)[O-])s2)c(=O)[nH]c1=O | inconclusive [activator, single point] | 
56 | CCc1c(C)c2cc(Cl)c(O)c(CN(C)C)c2oc1=O | inconclusive [activator, partial curve, poor fit] | 
57 | CC(C)OC(=O)CSc1nc2cccnc2n1C1CCCCC1 |  | inactive: -4.2%
58 | CCOC(=O)N1CCN(Cc2nc3cc(NC(=O)CC)ccc3n2C)CC1 |  | inactive: -11.6%
59 | Nc1nc(N)c(N=Nc2ccc(SCC(=O)O)cc2)c(=O)[nH]1 |  | inactive: -2.03%
60 | NC(=O)C1CCN(CC(O)COc2ccc(-c3ccccc3)cc2)CC1 (stereo not given) | inconclusive [activator, partial curve, poor fit] | 
61 | CC(C)(C)OC(=O)C[C@@H]1C/C=C\C[C@@H](CC(=O)N[C@@H](CO)Cc2ccccc2)C(=O)N2CCC[C@@H]2COC1=O |  | inactive: -7.31%
62 | COC(=O)c1cccc(NC(=O)Nc2ccc(Cl)cc2Cl)c1 | inconclusive [activator, single point] | 
63 | O=C(NCc1ccco1)c1cccc2ccccc12 |  | inactive: -0.815%
64 | O=c1oc(-c2cccs2)nc2c1cnn2-c1ccccc1 | inconclusive [activator, partial curve, poor fit] | 
65 | CC(Sc1c[nH]c2ccccc12)C(=O)O (stereo not given) | active: 8.2 µM | 
66 | CC(=O)N1CCN(C(=O)c2cc(C)nc3ccccc23)CC1 | inconclusive [activator, full curve, poor fit] | 
67 | COc1cc2nc(SCc3c(C)noc3C)n(CCC3=CCCCC3)c(=O)c2cc1OC | inconclusive [activator, partial curve] | 
68 | O=C(Nc1nccs1)C1Cc2ccccc2CN1S(=O)(=O)c1ccc(F)cc1 (stereo not given) |  | inactive: 425% [at 0.0737 µM]
69 | COc1ccc(NCc2nc3ccccc3n2CCOc2ccccc2)cc1 | inconclusive [activator, single point] | 
70 | Cc1c(C)c2c(OCC(=O)N[C@@H](C(=O)O)c3ccccc3)cc3c(c2oc1=O)CCC(C)(C)O3 | inconclusive [activator, partial curve, poor fit] | 
